# The list shows a part of the results. The energies were worked out here from pooled read counts, against the library average; single values are noisy.
# Molecular target: T1, Pho4 (S. cerevisiae) (UniProt P07270)
# T1 sequence: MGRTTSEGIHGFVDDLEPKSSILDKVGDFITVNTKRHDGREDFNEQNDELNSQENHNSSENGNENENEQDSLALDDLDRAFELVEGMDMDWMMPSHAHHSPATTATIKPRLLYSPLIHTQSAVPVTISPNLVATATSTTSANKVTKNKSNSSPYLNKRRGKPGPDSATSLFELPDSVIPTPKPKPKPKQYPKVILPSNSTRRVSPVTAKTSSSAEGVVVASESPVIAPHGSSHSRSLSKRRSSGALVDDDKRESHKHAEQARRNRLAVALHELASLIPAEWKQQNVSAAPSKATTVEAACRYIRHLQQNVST
# Assay: relative binding free energy (BET-seq); higher = weaker binding
# Conditions: reference: library average
row,Sequence,relative binding free energy [kcal/mol]
1,GGGGGCACGTGGACCA,-0.07
2,TTACACACGTGGAGTG,-0.04
3,AGATGCACGTGTTTAA,0.07
4,ACGGGCACGTGTGTGG,-0.15
5,ATGTTCACGTGCTCGG,0.12
6,GGATTCACGTGTATTA,0.34
7,ACATGCACGTGGGTGC,-0.18
8,GGTTGCACGTGACAGT,0.14
9,TGGGGCACGTGCAAGA,-0.05
10,CGTTTCACGTGGGACG,0.1
11,GTTGTCACGTGGTTTA,0.13
12,TTTATCACGTGTATAT,0.2
13,CCGTGCACGTGGTGAG,-0.01
14,GCGGGCACGTGTAGCG,-0.09
15,CATTTCACGTGTGGGC,0.57
16,GCGGGCACGTGGATGA,-0.08
17,CTCTTCACGTGGGGGC,0.27
18,TTTTGCACGTGGATGG,-0.01
19,AGCAGCACGTGAGGTT,0.16
20,TTTAACACGTGGTGTA,-0.12
21,GGATTCACGTGGGAAT,0.25
22,GTAATCACGTGAAGGG,0.33
23,CATGTCACGTGTGGGT,0.06
24,TGGCACACGTGACGGT,0.1
25,GATGTCACGTGGGCAA,0.1
26,TCGTTCACGTGACGGT,0.25

row,Sequence,relative binding free energy [kcal/mol]
1,CAATGCACGTGGGAAT,0.12
2,TTATTCACGTGTCTTG,0.28
3,TGACTCACGTGTAAGG,0.34
4,AAAGGCACGTGGGATA,-0.09
5,GGGCTCACGTGGGGGC,0.07
6,ACGTACACGTGTGATG,0.24
7,CAGTTCACGTGAGGGA,0.37
8,GGAATCACGTGGGTCG,0.03
9,TTTGCCACGTGTTTTC,0.04
10,AATATCACGTGAGCGT,0.26
11,GTATGCACGTGAAAAG,0.21
12,TTTAACACGTGGTTGC,-0.02
13,TCGTACACGTGTTGGG,-0.01
14,TCTTTCACGTGAGAGG,0.45
15,TATACCACGTGAGGTT,0.23
16,ATTATCACGTGGTGGC,0.03
17,AGGGGCACGTGTTGTT,-0.04
18,ATACACACGTGGGTTT,-0.09
19,TGTGTCACGTGTAGCC,0.15
20,CTATGCACGTGGTGAT,-0.17
21,TAAGACACGTGGTATG,-0.16
22,AGAAACACGTGGTGGC,-0.01
23,GCTGTCACGTGAGAGG,0.23
24,TGGGACACGTGTACTG,0.18
25,CTGGTCACGTGCAGGT,0.11
26,TAAGGCACGTGAAGTA,0.16

row,Sequence,relative binding free energy [kcal/mol]
1,GTGTTCACGTGGAAAT,0.23
2,GTTTTCACGTGACGTA,0.2
3,AGTTACACGTGCGGTT,0.11
4,GCATGCACGTGGTTTA,-0.12
5,TGACTCACGTGGTTTA,0.32
6,AAGTGCACGTGTTAAG,0.09
7,AATGGCACGTGGGGCT,-0.24
8,TGTACCACGTGTATTT,0.06
9,GGTTTCACGTGTACGG,0.33
10,GTTATCACGTGGTGCA,0
11,TGGGGCACGTGCATGC,-0.2
12,CGTGGCACGTGGCTTT,-0.24
13,TTTTTCACGTGTCGTC,0.29
14,AGCGGCACGTGTGGCG,-0.23
15,ATTTGCACGTGGATAT,0.09
16,CGACGCACGTGGTGTG,-0.29
17,AGATGCACGTGTTTAT,-0.04
18,TTGATCACGTGCTGTT,0.04
19,AATTACACGTGAGGTG,0.34
20,AGAGGCACGTGTAGGC,-0.04
21,TGGCGCACGTGTAGGA,-0.06
22,CGGGGCACGTGGATGA,-0.14
23,GTTAGCACGTGTTGCT,0.12
24,TATGGCACGTGATAAT,-0.03
25,GAATGCACGTGGTTAA,0.06
26,ATTCTCACGTGAATGT,0.43

row,Sequence,relative binding free energy [kcal/mol]
1,TTATACACGTGTTTGG,-0.04
2,TGGCACACGTGTTGAA,0.2
3,TAGGGCACGTGAGCGT,-0.1
4,TATGACACGTGGGAAG,-0.03
5,AAGAGCACGTGGAGGG,-0.22
6,TCTATCACGTGATGTT,0.01
7,TTGTACACGTGAGGAG,0.43
8,CTTGCCACGTGGGTTG,-0.25
9,TAAGGCACGTGCGCTG,-0.21
10,ACGCGCACGTGGGGGC,-0.27
11,GTGTTCACGTGCGGGA,0.2
12,GATAACACGTGTTGGC,0.1
13,ACTTGCACGTGTTGAT,0.09
14,GGGTTCACGTGGCAAT,0.39
15,TTTAACACGTGCTTTA,-0.1
16,AAAGGCACGTGGGCGC,-0.2
17,AATTACACGTGGGGTC,0.08
18,TGGATCACGTGTGAAT,0.28
19,TGGATCACGTGGGAGA,-0.09
20,TCGAGCACGTGGTTAT,-0.13
21,GGGCTCACGTGTATTT,0.26
22,CGGTTCACGTGCGGGA,0.07
23,GTAATCACGTGAGATT,0.33
24,GGTCGCACGTGAGTAT,0.22
25,GTTGTCACGTGTCCGT,0.03
26,TATGTCACGTGGACAT,0.2

row,Sequence,relative binding free energy [kcal/mol]
1,GTGTACACGTGGTCAG,-0.1
2,TTGGTCACGTGCAGAG,0.09
3,GTGAGCACGTGGAAGA,-0.05
4,CGAGTCACGTGAATTT,0.5
5,TTCGACACGTGAGTGT,0.13
6,AATGGCACGTGTGGAA,-0.06
7,TATACCACGTGTAGGA,0.19
8,GGTTACACGTGTCGGT,0.17
9,TCTAGCACGTGCGGGG,-0.11
10,TTTCGCACGTGTATTT,-0.09
11,ATTGTCACGTGTGAGC,0.12
12,TGCGTCACGTGAATGG,0.3
13,GAGTTCACGTGGTGTG,0.25
14,GCTGACACGTGATGGG,0.19
15,TTGGGCACGTGTGATT,0.08
16,GGTTTCACGTGCGATT,0.24
17,AATGGCACGTGCTGTA,-0.21
18,AGTTGCACGTGGCAGA,-0.06
19,TGTATCACGTGGCAGG,0.07
20,GTTGTCACGTGGTCAG,0.08
21,AGGTCCACGTGGGTCG,-0.16
22,GGTGTCACGTGATAAG,0.21
23,TTGGTCACGTGCTCAT,0
24,AATGTCACGTGCTGTA,-0.07
25,GGCGGCACGTGTATAG,0.06
26,CTGGCCACGTGTATGG,-0.02

row,Sequence,relative binding free energy [kcal/mol]
1,TCGGTCACGTGTGTTG,0.14
2,CGTTACACGTGGGATT,0.09
3,AAAGGCACGTGTGGTT,-0.01
4,TTTAGCACGTGGAGTG,-0.03
5,GCTTGCACGTGCTGGT,0.03
6,GGTTGCACGTGCTAAT,0.01
7,TAAATCACGTGGGTAT,0.05
8,CTAGTCACGTGCTGGG,0.16
9,TTTTTCACGTGCTCGT,0.28
10,TTTGACACGTGTAGTC,0.22
11,ATCTGCACGTGTGGGG,-0.05
12,CGGTGCACGTGTGAGT,-0.09
13,GCATGCACGTGTAGTA,0.12
14,CGCGACACGTGGGTGT,-0.14
15,TGCGGCACGTGCGTTA,-0.2
16,ATGTACACGTGCGTGA,0.02
17,GTTAACACGTGTGCTT,0
18,ATGGACACGTGGTTCT,-0.16
19,AGTAGCACGTGTGGTT,-0.03
20,ATGTACACGTGTGGTC,0.23
21,CTTGTCACGTGATGGA,0.24
22,GCTGTCACGTGTGCGG,0.03
23,TAGGGCACGTGTGGGC,-0.01
24,GGAAGCACGTGTTGTA,-0.19
25,AATTTCACGTGTTGTG,0.18
26,TTATGCACGTGGAACT,0.07

row,Sequence,relative binding free energy [kcal/mol]
1,ATGTACACGTGCGGGA,0.04
2,TTCGGCACGTGATTTA,-0.07
3,TGGAGCACGTGTGGGA,0
4,GGAAACACGTGGTAAG,0
5,AGATGCACGTGTTTTA,-0.18
6,GTGGGCACGTGATCTA,0.01
7,ATCGGCACGTGGTACG,-0.19
8,AGATTCACGTGGAAGT,0.25
9,GGTTACACGTGATATT,0.32
10,GCGTGCACGTGGGGTG,-0.15
11,CGGGGCACGTGATGGT,0.06
12,TCGCGCACGTGAGTGT,-0.03
13,GGAGTCACGTGGTATA,0.21
14,TGGATCACGTGGCTCG,0.12
15,TAGGGCACGTGGAGAC,-0.02
16,GGGTTCACGTGTGTCA,0.35
17,TAGCACACGTGTATGG,0.16
18,GGGGTCACGTGGCGTG,0.06
19,TCGATCACGTGGTGGC,0.24
20,GTGGACACGTGGATTA,0.07
21,TAGAGCACGTGAGTAA,0.12
22,AATGTCACGTGAGAAG,0.22
23,TATGGCACGTGGGCGA,-0.26
24,ATTGGCACGTGAATCT,0.09
25,AGTCGCACGTGTGGAT,-0.03
26,AGTGGCACGTGTCAGT,-0.03

row,Sequence,relative binding free energy [kcal/mol]
1,GGGGGCACGTGAAGTT,0.26
2,GGAGACACGTGTGGGT,0.13
3,TTTGGCACGTGGCGCT,-0.2
4,TTGATCACGTGGGGGC,0.07
5,TTGAACACGTGGTAAG,0.24
6,GGGTCCACGTGGTCTT,0.04
7,TTGATCACGTGTTGCT,0.15
8,TGATTCACGTGAGTGT,0.42
9,ACGTTCACGTGTTTTA,0.29
10,TAGCTCACGTGCTTGT,0.23
11,ATGGACACGTGGCAGT,-0.02
12,CGTTTCACGTGTTAAG,0.26
13,AGGTTCACGTGCGAAT,0.26
14,CTGTTCACGTGGTAGT,0.1
15,TAGTTCACGTGATATA,0.33
16,AAAGGCACGTGGGTAC,-0.14
17,TATTTCACGTGATGTT,0.26
18,CGGTGCACGTGTAGTA,0.11
19,TGGGTCACGTGGTTAT,0.18
20,TGTTCCACGTGGGGGT,-0.02
21,GTAACCACGTGGAGGG,-0.03
22,GTTGTCACGTGACGTA,0.23
23,AGGTGCACGTGGTACT,-0.24
24,TTTGACACGTGTTCGT,0
25,CAAGTCACGTGTGTGT,0.17
26,GGTGGCACGTGCGTGT,-0.14

row,Sequence,relative binding free energy [kcal/mol]
1,TATTTCACGTGTTAGA,0.31
2,TAGTTCACGTGTCATG,0.26
3,GGCTACACGTGTTGTG,0.11
4,CCAGTCACGTGATGTT,0.46
5,GTAGACACGTGGTGGA,0.04
6,TTATACACGTGATGTA,0.11
7,TGCTTCACGTGTGGAT,0.19
8,ATTTGCACGTGTTAGC,0.17
9,ATAATCACGTGAGGTT,0.39
10,GGATGCACGTGCGGTT,-0.03
11,ATGGGCACGTGATAGT,-0.01
12,GGGGTCACGTGTGTCA,0.19
13,TATCTCACGTGGTTTA,0.19
14,TTGGACACGTGTCATG,-0.06
15,AGTATCACGTGTGTCT,0.15
16,TGTGGCACGTGTGATA,-0.16
17,TGCTGCACGTGTGGGG,0.06
18,TATCTCACGTGGTAGG,0.21
19,GGTTTCACGTGACCGG,0.42
20,GTTTACACGTGAGCGT,0.2
21,GATGTCACGTGACGGA,0.31
22,TTAGTCACGTGTGACG,0.07
